Measured values taken from patent publication US12616706B2, “Compositions and methods of use comprising substances with neural plasticity actions administered at non-psychedelic/psychotomimetic dosages and formulations” (Arbormentis LLC, priority 2019, dated 2026).

System: ARPE-19 cells
Test: L-glutamate-induced cytotoxicity, cell viability (ATPlite)
Conditions: psilocin 0.025 to 0.1 μM, 6 h pretreatment, 1 mM L-Glu

CN(C)CCc1c[nH]c2cccc(O)c12 [psilocin]
Reduction of cell viability induced by L-glutamate: counteracted the observed reduction of cell viability
